Results as given in PubChem BioAssay AID360 (National Center for Advancing Translational Sciences (NCATS), 2006).
Out of some 48,000 compounds screened, about 550 (1.1%) were called active. About 4% were inconclusive and are not listed. Cut-off read from the data, not from the text of the source: active = potency below about 15 µM; inconclusive = mostly about 16 µM to 33 µM; inactive = weaker than that. The list shows a part of the results.

What follows are compounds tested against Lysosomal acid glucosylceramidase (Homo sapiens) (UniProt P04062) (assay: Glucocerebrosidase). Details: purified enzyme, resorufin glucoside fluorescence (screen aimed at inhibitors), 20 min.
Sequence of UniProt P04062 (P04062 whole entry, looked up): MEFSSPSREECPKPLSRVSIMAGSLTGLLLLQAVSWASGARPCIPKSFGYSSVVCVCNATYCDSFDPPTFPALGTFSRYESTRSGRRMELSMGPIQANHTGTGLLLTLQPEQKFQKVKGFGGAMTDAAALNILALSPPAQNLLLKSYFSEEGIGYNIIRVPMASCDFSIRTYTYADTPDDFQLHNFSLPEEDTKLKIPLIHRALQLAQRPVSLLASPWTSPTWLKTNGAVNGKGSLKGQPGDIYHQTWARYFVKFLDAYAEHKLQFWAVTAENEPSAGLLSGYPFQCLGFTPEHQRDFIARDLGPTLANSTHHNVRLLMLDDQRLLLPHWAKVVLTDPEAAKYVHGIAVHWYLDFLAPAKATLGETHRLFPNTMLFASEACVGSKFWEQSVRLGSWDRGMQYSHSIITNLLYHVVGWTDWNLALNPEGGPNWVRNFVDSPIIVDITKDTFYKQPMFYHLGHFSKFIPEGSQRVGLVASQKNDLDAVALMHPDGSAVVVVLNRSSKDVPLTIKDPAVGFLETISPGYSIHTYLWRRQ
Summary of the method: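 Wild-type enzyme at 0.2 nM final in 50mM citric acid/KH2PO4, 10mM sodium taurocholate, 0.01% tween-20, pH 5.9, with resorufin beta-D-glucopyranoside at 30 uM final. Compounds titrated, 20 min at RT, red fluorescence read; AC50 from titration.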
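Note: the screen sought inhibitors.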
Potency is the fitted concentration of half-maximal effect.

Potency, inactive:
c1nc(N2CCOCC2)c2sc3nc(N4CCOCC4)c4c(c3c2n1)CCCC4 > 76.9 µM, Cc1cc(NC(=O)c2noc3c2CCCC3)n(-c2ccccc2)n1 > 76.9 µM, Cc1ccc(NCC(O)C(O)C(O)CO)cc1C (configuration not stated) > 76.9 µM, CN1CCN(CCCNC(=O)c2ccc(CSCc3cccc(Cl)c3)o2)CC1 > 76.9 µM, N#Cc1c(N)nc(SCc2ccccc2)c(C#N)c1-c1ccco1 > 76.9 µM, O=C(CSc1nc2ccccc2[nH]1)Nc1ccccc1N1CCOCC1 > 76.9 µM, O=C(CCNC(=O)Cn1ccc2ccccc2c1=O)NCCN1CCc2ccccc2C1 > 76.9 µM, Cc1ccc(CNS(=O)(=O)c2ccc(C(C)(C)C)cc2)n1C > 76.9 µM, CCCC(C)C(=O)Nc1ccc2c(c1)OCCO2 (configuration not stated) > 76.9 µM, CCCCNC(=O)CC1N=C2c3ccccc3N=C(SCC(=O)Nc3cccc(C)c3)N2C1=O (configuration not stated) > 76.9 µM, CCCS(=O)(=O)N1CCCC(C(=O)NCCCN(C)Cc2ccccc2)C1 (configuration not stated) > 76.9 µM, O=C(N1CCCCC1)C12CC3CC(C1)CC(C(=O)N1CCCCC1)(C3)C2 > 76.9 µM, CCOC(=O)CC(=O)CSc1ncnc2c1oc1ccccc12 > 76.9 µM, CCOCCCn1c(=S)[nH]c2cc(C(=O)NCCOC)ccc2c1=O > 76.9 µM, CCOc1ccccc1-n1c(COc2ccc(C)cc2)nnc1SCC(N)=O > 76.9 µM, COC(=O)C1=C(C)N=C2SCCC(=O)N2C1c1cc(Br)ccc1OC (configuration not stated) > 76.9 µM, COc1ccc(-n2nc(C(=O)N3CCCCC3)c3ccccc3c2=O)cc1 > 76.9 µM, O=C(O)COc1ccc(Cl)cc1CO > 76.9 µM, O=C(O)c1ccc(COc2c(F)c(F)cc(F)c2F)cc1 > 76.9 µM, CCc1c(C)nc(N)n2c(SCC(=O)Nc3ccccc3OC)nnc12 > 76.9 µM, O=C(c1ccccc1-c1nc(-c2ccc(F)cc2)no1)N1CCCC1 > 76.9 µM, CCCCOc1ccc(C(=O)Oc2ccc(C)nc2)cc1 > 76.9 µM, N#Cc1nc(Cc2ccccc2)oc1N1CCC(C(N)=O)CC1 > 76.9 µM, Cn1c(=O)c2c(nc(OCc3cccnc3)n2Cc2c(F)cccc2Cl)n(C)c1=O > 76.9 µM, O=C1c2ccccc2C(=O)N1Cc1nc(-c2ccccn2)no1 > 76.9 µM, Cc1noc(C)c1COc1ccc(C(=O)NCc2ccccn2)cc1 > 76.9 µM, Cc1cc(C)nc(N2CCC(CNC(=O)CCc3ccccc3)CC2)n1 > 76.9 µM, O=C(OCC(=O)N(C1CCCCC1)C1CCCCC1)c1cnccn1 > 76.9 µM, CCCc1cc(=O)[nH]c(SCC(=O)N(C)C2CCS(=O)(=O)C2)n1 (configuration not stated) > 76.9 µM, Cc1csc(NC(=O)c2ccc(C)c(S(=O)(=O)N3CCCCC3)c2)n1 > 76.9 µM, CCOc1ccc(Nc2nc(Cc3nnc(SCC(=O)O)o3)cs2)cc1 > 76.9 µM, CCOC(=O)c1[nH]c(COC(=O)CCCOc2ccccc2)c(C(=O)OCC)c1C > 76.9 µM, COC(=O)c1ccc(OCCn2cnc3ccccc3c2=O)cc1 > 76.9 µM, NC(=O)c1c(NC(=O)C2CCCO2)sc2c1CCC2 (configuration not stated) > 76.9 µM, CCSc1nnc(-c2ccc(OC)cc2)o1 > 76.9 µM, O=C(O)c1ccc(OCC(O)Cn2cnc3ccccc32)cc1 (configuration not stated) > 76.9 µM, O=C(c1cc2nc3c(c(C(F)(F)F)n2n1)CCc1ccccc1-3)N1CCN2CCCC2C1 (configuration not stated) > 76.9 µM, CCOC(=O)c1cccc(NC(=O)CSc2nnc(C)n2Cc2ccccc2)c1 > 76.9 µM, CCOC(=O)c1cc(NC(=O)N2CCOCC2)c(C)nc1C > 76.9 µM, CN(CC(=O)Nc1ccc(F)c(F)c1F)c1cnccn1 > 76.9 µM, O=C(CCS(=O)(=O)c1ccc(Br)cc1)N1CCN(c2ccccc2)CC1 > 76.9 µM, Cc1nn(Cc2ccccc2Cl)c2sc(C(=O)OC3CCCC3=O)cc12 (configuration not stated) > 76.9 µM, CCOC(=O)c1c(N)c(C#N)cn1-c1ccccc1 > 76.9 µM, COc1cc2cc(CN(Cc3nnnn3C3CCCC3)C3CCCC3)c(=O)[nH]c2cc1OC > 76.9 µM, C=CCOc1cccc(C2C(C(=O)c3ccco3)=C(O)C(=O)N2Cc2ccncc2)c1 (configuration not stated) > 76.9 µM, Cn1c(=O)c2c(nc(SCC(=O)NCc3ccco3)n2C)n(C)c1=O > 76.9 µM, CCOC(=O)c1cc2c(=O)n3ccccc3nc2n(CCCOC)c1=NC(=O)c1cccnc1 > 76.9 µM, O=S(=O)(CCN(CCS(=O)(=O)C(F)(F)F)CC1CCCO1)C(F)(F)F (configuration not stated) > 76.9 µM, Cc1ccc(-n2c(Cc3cccn3C)nnc2SCC(=O)Nc2cc(C)on2)cc1 > 76.9 µM, COC(=O)c1ccccc1NC(=O)Nc1ccc(C(=O)N2CCCC2)cc1 > 76.9 µM, O=C1C2C3C=CC(C3=C3CCCCC3)C2C(=O)N1Cc1ccccc1 (configuration not stated) > 76.9 µM, O=C(Nc1ccccc1Cl)c1c(F)c(F)c(F)c(F)c1F > 76.9 µM, Cc1[nH]c(=O)[nH]c1CN1CCCCC1 > 76.9 µM, O=C(c1n[nH]c(=O)c2ccccc12)N1CCN(c2ccccc2Cl)CC1 > 76.9 µM, Cc1cc(=O)n(C)c(=O)n1CCCCCN1CCCC1 > 76.9 µM, O=C(c1ccccc1NS(=O)(=O)c1cccs1)N1CCOCC1 > 76.9 µM, Cc1cc(C)cc(Nc2ccc(C(=O)O)cc2N)c1 > 76.9 µM, CCn1c(SCC(=O)c2[nH]c(C)c(C(C)=O)c2C)nnc1-c1ccncc1 > 76.9 µM, COc1ccc(C)cc1NC(=O)CNC(=O)Cn1ccc2ccccc2c1=O > 76.9 µM, Cn1c(=O)cc(OCCCC(=O)Nc2ccc3c(c2)OCCO3)c2ccccc21 > 76.9 µM, C=CCn1c(SCCC#N)nnc1-c1ccncc1 > 76.9 µM, Cc1cc2cc(CNC(=O)CCC(=O)O)ccc2[nH]1 > 76.9 µM, CCOc1ccc2nc(NC(=O)CSc3nc4cccnc4n3C)sc2c1 > 76.9 µM, CC1C(c2ccccc2)N(C)CCC12NC(=O)NC2=O (configuration not stated) > 76.9 µM, Cc1nc2ncnn2c(N2CCCC(C(=O)Nc3ccc4c(c3)CCC4)C2)c1C (configuration not stated) > 76.9 µM, CCOC(=O)c1cc(NC(=O)C2CCCO2)cc(C(=O)OCC)c1 (configuration not stated) > 76.9 µM, COc1ccc(-n2nnnc2-c2cccc(OC)c2)cc1 > 76.9 µM, O=C(Cn1cnc2c(cnn2-c2ccccc2)c1=O)NCc1ccccc1 > 76.9 µM, CCN(C(=O)CSc1ncn[nH]1)c1cccc2ccccc12 > 76.9 µM, CCOC(=O)CSc1nnc(CNC(=O)c2cccs2)n1-c1ccccc1 > 76.9 µM, COc1cccc(-n2nnc3c(=O)n(CC(=O)OCc4ccccc4)cnc32)c1 > 76.9 µM, CCN(CC)C(=O)C1CCN(CC2CC=CCC2)CC1 (configuration not stated) > 76.9 µM, O=C(NCc1cccnc1)C1CC(=O)N(c2ccc(Cl)cc2)C1 (configuration not stated) > 76.9 µM, Cc1cc(C)n(-c2cc(=O)n(C)c(=O)n2C)n1 > 76.9 µM, COc1cccc(-n2ccnc2SCC(=O)Nc2cc(OC)ccc2OC)c1 > 76.9 µM, CCCc1cc(=O)[nH]c(SCC(=O)Nc2cc3c(cc2C(C)=O)OCO3)n1 > 76.9 µM, CCOC(=O)C1CCCN(Cc2ccccc2OCC)C1 (configuration not stated) > 76.9 µM, O=C(NCc1ccccc1)c1ccc(OC2CSC2)cc1 > 76.9 µM, COc1ccc2[nH]c(C)c(C(=O)CN(C)C)c2c1, CCOC(=O)CN(C(=O)CSc1nnc(CNc2ccc(F)cc2)o1)c1ccccc1 > 76.9 µM, Cc1cc(C)nc(Nc2ccc(N3CCCC3)cc2)n1 > 76.9 µM, COc1ccc(NC(=O)CN(C)S(=O)(=O)c2cccs2)cc1 > 76.9 µM, CCCC(=O)Nc1ccc(NC(=O)CCc2ccccc2)cn1 > 76.9 µM, O=C(NC1CCCCC1)C1CCCN1C(=O)NCc1ccccc1 (configuration not stated) > 76.9 µM, CCCn1c2c(c(O)c(C(=O)Nc3ccccn3)c1=O)CCCC2 > 76.9 µM, N#Cc1nc(COc2ccccc2)oc1N1CCOCC1 > 76.9 µM, Cc1ccnc(NS(=O)(=O)c2ccc(NC(=O)C3CCCNC3=O)cc2)n1 (configuration not stated) > 76.9 µM, COc1ccccc1N1CCN(C(=O)c2c(-c3c(Cl)cccc3Cl)noc2C)CC1 > 76.9 µM, O=C(NC1CCCCCC1)C1c2ccccc2C(=O)N1Cc1cccnc1 (configuration not stated) > 76.9 µM, O=C(CCCCn1c(=O)[nH]c2ccsc2c1=O)NCc1cccnc1 > 76.9 µM, O=c1c2ccccc2cnn1-c1nc2ccccc2s1 > 76.9 µM, Cc1cccc(N(CC(N)=O)C2SC(=O)N(c3ccccc3)C2=O)c1 (configuration not stated) > 76.9 µM
